# Laboratory results reported in the supplement of paper PMC11417369.
# ± gives the standard deviation of the averaged measurements. This is one part of the list.
# Test system: PfAP2-EXP AP2 domain (GST-tagged)
# Test: gcPBM binding intensity (ln(normalized median fluorescence intensity)); higher = stronger DNA binding
# In short: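 The binding buffer was 1× PBS containing 1% milk, 0.2 mg/ml BSA, 0.5% salmon testes DNA and 0.03% Triton X-100. In it, GST-tagged P. falciparum DNA-binding domains expressed in E. coli were applied for 1 h to an Agilent 4 × 180k array of primer-extended double-stranded 36-bp intergenic genomic probes plus negative controls. Binding intensity, read with Alexa488 anti-GST antibody and a 488 nm scan, is the highest Masliner-normalised natural-log median intensity across replicate spots of either probe orientation.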
row,Sequence,gcPBM binding intensity (ln)
1,TAGAATATCCCCTACACACCCAAATAATTTACAAAT [CACACA_site4825],9.51 ± 0.67
2,AAAGTTGTTACGAACATACACACGAACATACTCACG [CACACA_site604],8.7 ± 0.69
3,TAAGTAACTTTTAAAAGTACCCACACATATATATAT [XGTACX_site1231],9.915 ± 0.035
4,TCATTTTATTTTTTCACACACACATCTATATTTATA [CACACA_site7547],8.86 ± 0.31
5,ACAAAAATAAACTATAGTACACACTTATTATTATGA [XGTACX_site5680],8.34 ± 0.31
6,TTTCTTTTTTTTTTTTTTTTTTTTTTTTTTTTTTTT [TGCATGCA_negctrl_site91],9.26 ± 0.21
7,TTATGTATTTATATAAATATAAATATATATATATAT [CACACA_negctrl_site774],9.92 ± 0.23
8,TATATTTATAGGTATACACACATATGTATGTTATGT [CACACA_site7824],8.43 ± 0.35
9,AAAAAAAAGAAAAACACACACATATATATATAGAAT [CACACA_site1006],8.71 ± 0.68
10,TTTCCCTTGTTGTAAACATGCACAATATTTAGGTAT [TGCATGCA_site49],8.68 ± 0.34
11,ATACATATAAATAATTGTACTATTAAAAAAGAACGT [XGTACX_site3751],9.14 ± 0.58
12,ATAATATATTTTTGTAGTACACTTCTGGTAATATCG [XGTACX_site2402],8.87 ± 0.49
13,AGTATACAGATATATACACACATATATATATATATA [CACACA_site4323],10 ± 0.41
14,CTTAGAATATATGAATGTACTTTTTTTTTTAAATAA [XGTACX_site6048],8.15 ± 0.15
15,CAATTAGCATTTTATTGTACATTTATAATCTATGAT [XGTACX_site1445],8.59 ± 0.38
16,AAAAAAAAAAATACTCGTACATAAACCTATACATTT [XGTACX_site6494],8.51 ± 0.45
17,TATATATATATATGTTGTACAAAAATGTAAAATATA [XGTACX_site7761],10 ± 0.31
18,ATAATATTAATATGTACACACCTTAATCCTTAAAAG [CACACA_site7640],8.52 ± 0.35
19,ATAATTTTTTAAGTGTGTACTAAAATGTGTATTTTA [XGTACX_site6227],8.45 ± 0.33
20,TATACCTGAATTAAAAGTACATGTATATATTTTCCC [XGTACX_site3594],8.44 ± 0.3
21,GTATTTATATGATTAACACACATATGGGTATTAATA [CACACA_site4853],8.52 ± 0.35
22,TTGCATTTTCTAGTAACACACAATTAGCGTTGCTGT [CACACA_site3594],8.54 ± 0.6

row,Sequence,gcPBM binding intensity (ln)
1,TATAGAAGCATTCACACACACACATACATACACATA [CACACA_site1466],8.62 ± 0.45
2,TAACAAAAAGGGAACACATGCGCTCTTTATTTATTT [TGCATGCA_site620],8.51 ± 0.46
3,AATATATGAATTATATGTACATATAGATAAGTCACA [XGTACX_site7637],8.71 ± 0.42
4,TCTTAATATCGTTTCTCACACATATACAAACATAAA [CACACA_site5700],8.62 ± 0.49
5,TATTATAGAAATTTAATGTTGGACAAAAAAATGAAA [CACACA_negctrl_site1351],8.61 ± 0.44
6,AAATTATTTATTTTATGTACATATTATTAAAGTTAA [XGTACX_site552],8.38 ± 0.25
7,AGAGAGAAAGCTATAACATGCAACAATTTTTAGAAC [TGCATGCA_site596],9 ± 0.3
8,ATAAATGACAAATTAACACACATATATTATAGATAT [CACACA_site7770],8.44 ± 0.47
9,TAATGCATTTTCGCATGTACATATTTCTCTTTATAT [XGTACX_site8915],8.48 ± 0.071
10,AAAATGTGATATGTAAATATATATGTATGTATATAT [CACACA_negctrl_site1748],8.54 ± 0.36
11,ATCTATATTTAATTTACACACAAAAAAAATTGTTGG [CACACA_site6582],8.54 ± 0.49
12,ATAAATATGTAAAAAACATGCAAAAAATTAAAGACA [TGCATGCA_site912],9.17 ± 0.3
13,TTATTACATAACAATATACACACTATTGATTAAAGA [CACACA_site2933],8.39 ± 0.41
14,TAAAAAAAAAGAAGCTGTACTAAAAAATTTATATTA [XGTACX_site7408],8.46 ± 0.48
15,GTTATTAAACAGAAAAGTACATATGTATATTAAAAT [XGTACX_site3724],8.8 ± 0.39
16,TTATTAAATAAAATCATGCACACAATATATATTTTA [CACACA_site2496],8.26 ± 0.33
17,AACGCACATATATTTATGTATATATATATATATATA [GTGCAC_negctrl_site478],10.2 ± 0.31
18,TCATAGTAGAAACACACACACACACCCATATATATA [CACACA_site1737],8.81 ± 0.33
19,GGAAACAAAAAATATATACACACTAAACATAAAAAA [CACACA_site20],8.79 ± 0.38
20,GGGTTTTTTATTAATACATGCATGGAAACGCACTAT [TGCATGCA_site1000],9.41 ± 0.35
21,AAATTCATAAAAATATTTTATAATTATATATAGAAT [TGCATGCA_negctrl_site343],8.32 ± 0.44
22,AAGAAAAACAATGAGATAAAGAAGAGAAAATATGTC [TGCATGCA_negctrl_site415],9.12 ± 0.45

row,Sequence,gcPBM binding intensity (ln)
1,ATATATATATAATTTGTACACACAAATATGCATATA [CACACA_site9136],9.71 ± 0.13
2,AGTGGAATGTATGATTTTCATTCCTTAAAATTTTAA [GTGCAC_negctrl_site521],8.24 ± 0.5
3,TATTGATTTATAAACACACACTCGAAGATGTTTAAC [CACACA_site4760],8.44 ± 0.43
4,AATACTAAAAAGTGTACACATACATAAAAAATTGCA [CACACA_site5620],9.27 ± 0.26
5,AAGAAAAAAGTTATTAGTACACATTATAATAAAAAG [XGTACX_site3527],8.76 ± 0.37
6,CATTATGTTGTAAATACACACATACATATACATACA [CACACA_site8143],8.51 ± 0.29
7,TAATTTTCTTTTTATCGTTTTTTTTTTTTTTTTTTT [XGTACX_negctrl_site432],8.59 ± 0.3
8,TATATCTCATAGTATACACACACACCCACCCACATA [CACACA_site8513],9.38 ± 0.61
9,TATATATATGTAAATCGTACAAATTATATATATCAT [XGTACX_site2821],8.37 ± 0.36
10,ATATATTATTTCTAGTGTACATACCCATATATAATA [XGTACX_site8902],8.97 ± 0.33
11,ATAAATAAGATATATACACACATATCTATACATATT [CACACA_site6369],8.28 ± 0.49
12,GGCTAAAAGGGGCACACACACAAAAAAAAAAAAAAA [CACACA_site3288],8.49 ± 0.17
13,ATTTAAGAAAAAAGTTGTACTTATTTATTTTTATTT [XGTACX_site5561],8.18 ± 0.34
14,AATCCACTTTTTTATGTTATACAATATAAATTAAAT [XGTACX_negctrl_site446],8.61 ± 0.61
15,ATTGAATTCCAACTGGTGCACCAGTAAGATTGAAAA [GTGCAC_site9895],8.985 ± 0.064
16,TAAAAAATAAATATATGTACATATTTATTTTTTTTT [XGTACX_site850],8.21 ± 0.35
17,ATATTTTTTTTTTCGTGTACGCATAAATATATCTAA [XGTACX_site3360],8.86 ± 0.46
18,TAGATAAACAAGAAATGTACAAACGTAAATATGTTC [XGTACX_site2373],8.61 ± 0.39
19,AATATCCACATTAGGAGTACACAGCTAACTGTTTGA [XGTACX_site3357],8.39 ± 0.35
20,TTGATTACACTGAAGTGTACATATATATATATATAT [XGTACX_site3532],10.1 ± 0.38
21,AAAAAAAAAAGAAACACACACATTTGTATATAATAT [CACACA_site2078],8.66 ± 0.44
22,TTTTATATAAAATCGTGTACATACCATTTCCTATTA [XGTACX_site5159],8.86 ± 0.23

row,Sequence,gcPBM binding intensity (ln)
1,AAATAATAAAAAAAATGTACACGTAAATATTATATT [XGTACX_site8125],8.88 ± 0.32
2,CATATAAAAATGTGCACACACACACCCATATATATT [CACACA_site1526],8.76 ± 0.15
3,AAAATTAATAAATAAACACACATATATATATATATA [CACACA_site2598],10.1 ± 0.44
4,GTGAAATATGCAAACACACACGAGAAAAATGTATAT [CACACA_site7488],8.93 ± 0.57
5,TTTTTGCCATATTACACACACACATGTAAACCCCCT [CACACA_site1647],9.78 ± 0.6
6,CAAAACAAAACGTATGCACACAATTAATATATTAAA [CACACA_site3405],8.83 ± 0.42
7,AACCCCGTGGAAATATGTACATATAAATATATAAAT [XGTACX_site2094],9.29 ± 0.47
8,TAAATAAGCACATACACACATACATACATACATAAA [CACACA_site4017],8.71 ± 0.52
9,AGAGTTCTCATATGCACACAAAAAACTTTCATTTAT [CACACA_site45],8.41 ± 0.25
10,TATTTTTTTCTTACATACTAATTTGGTACTCACATA [TGCATGCA_negctrl_site81],8.72 ± 0.43
11,AAATAAATCTTATGCACACAAATAATTAATTAAACA [CACACA_site1693],8.61 ± 0.31
12,ATAAAATGATAAATTTGTACACAAAAAAAAAAAAAA [XGTACX_site964],8.33 ± 0.62
13,AAAATAAAATATTTCTGTACTTATAACTATTCTATA [XGTACX_site8007],8.29 ± 0.33
14,GGGTATACAAATAAACGTACAAACTCATAAAAAAAA [XGTACX_site3191],8.58 ± 0.57
15,CATATATAACAATTCTCACACATAAAAAAAAAAAAT [CACACA_site4564],8.54 ± 0.57
16,TTTTTATGGTAAATAAAAATATCTCCCTCCTTAATT [CACACA_negctrl_site1352],8.14 ± 0.49
17,TAATAATTTATAATAGTGCATTTGATTTTAAAAATA,8.23 ± 0.21
18,TTAAAAAAATATAATACACACCAAAAATATGCACAT [CACACA_site5209],8.85 ± 0.35
19,TCTTTTTAAACTAATAGTACATATATATTAATAAAT [XGTACX_site4217],8.27 ± 0.29
20,ATTTACATAAATTGCATATATCGATGTAAATAAATA [CACACA_negctrl_site1150],8.48 ± 0.52
21,CATTTATTTTTGTTCTGTACATAAAGATGAACAAAA [XGTACX_site6797],8.48 ± 0.41
22,ATATATATATATATATGTACATATATTTATTTATTG [XGTACX_site6267],10.2 ± 0.3
